Assay results taken from PMC4336329 (PLoS ONE, 2015).
Out of some 310,000 compounds screened, about 2,200 (0.71%) showed an effect of 50% or more. Effects have a minus sign here. This is one part of the list.

Biological target: human ether-à-go-go-related gene (hERG) potassium channel (human, UniProt Q12809)
Experiment: primary screen, population patch clamp on CHO cells stably expressing hERG

human ether-à-go-go-related gene (hERG) potassium channel, sequence (Q12809 whole entry, looked up): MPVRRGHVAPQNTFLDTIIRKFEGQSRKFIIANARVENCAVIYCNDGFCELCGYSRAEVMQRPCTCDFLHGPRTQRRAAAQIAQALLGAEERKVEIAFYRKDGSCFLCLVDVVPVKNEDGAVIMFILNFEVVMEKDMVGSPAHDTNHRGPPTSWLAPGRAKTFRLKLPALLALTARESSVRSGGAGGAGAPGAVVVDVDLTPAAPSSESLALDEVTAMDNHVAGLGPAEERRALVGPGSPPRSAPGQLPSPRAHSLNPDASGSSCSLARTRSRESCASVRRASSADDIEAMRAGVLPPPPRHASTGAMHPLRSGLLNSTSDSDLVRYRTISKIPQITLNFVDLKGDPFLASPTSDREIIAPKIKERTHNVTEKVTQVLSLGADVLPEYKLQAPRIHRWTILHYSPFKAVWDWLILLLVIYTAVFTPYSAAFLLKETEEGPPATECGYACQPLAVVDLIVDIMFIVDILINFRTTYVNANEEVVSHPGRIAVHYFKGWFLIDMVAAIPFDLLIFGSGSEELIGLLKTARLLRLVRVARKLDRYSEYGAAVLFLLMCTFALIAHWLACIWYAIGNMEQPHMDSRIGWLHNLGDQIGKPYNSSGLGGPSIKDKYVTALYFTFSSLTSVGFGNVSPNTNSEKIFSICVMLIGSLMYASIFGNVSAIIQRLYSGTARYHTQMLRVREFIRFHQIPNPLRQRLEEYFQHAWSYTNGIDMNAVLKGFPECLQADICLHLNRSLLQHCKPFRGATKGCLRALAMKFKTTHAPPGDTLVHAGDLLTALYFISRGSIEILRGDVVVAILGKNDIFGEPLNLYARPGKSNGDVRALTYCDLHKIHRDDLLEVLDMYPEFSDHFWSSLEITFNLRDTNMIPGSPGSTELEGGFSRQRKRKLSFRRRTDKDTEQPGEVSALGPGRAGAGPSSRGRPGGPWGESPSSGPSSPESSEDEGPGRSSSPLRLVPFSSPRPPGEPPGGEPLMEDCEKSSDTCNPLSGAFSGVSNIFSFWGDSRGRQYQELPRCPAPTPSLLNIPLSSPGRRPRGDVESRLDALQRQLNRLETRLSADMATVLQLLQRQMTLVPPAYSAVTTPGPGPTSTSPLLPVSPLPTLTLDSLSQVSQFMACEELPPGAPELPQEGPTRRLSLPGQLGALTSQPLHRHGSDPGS

| SMILES | hERG current change (%, negative = inhibition) at 1uM |
| --- | --- |
| Cc1ccc(CNC(=O)CCCn2c(=O)[nH]c3ccccc3c2=O)cc1 | 12.3% |
| Cc1ccc(C(=O)c2sc3c(c2N)c(=O)[nH]c(=O)n3CCc2ccccc2)cc1 | 10% |
| CCOC(=O)c1cc2c(=O)n3ccccc3nc2n(C(C)C)c1=NC(=O)c1c(-c2c(F)cccc2Cl)noc1C | 7.84% |
| O=C(C1=C[C@H](c2csc3ccccc23)C[C@H](OCCCCO)O1)N1CCOCC1 | 7.87% |
| CCc1nnc(NC(=O)c2cc(S(=O)(=O)N(C)c3ccc(OC)cc3)ccc2Cl)s1 | 7.12% |
| Cc1c(F)cccc1NC(=O)CCC(=O)O | 9.98% |
| CC(NC(=O)C1CCN(S(=O)(=O)N2CCC3(CC2)OCCO3)CC1)c1ccccc1 (stereo not shown) | 9.42% |
| CCCCN(CCCNC(=O)C1CCN(C(=O)c2cc3sccc3n2C)CC1)Cc1ccccc1 | -31% |
| COc1c(O)c(O)c2oc(-c3ccccc3)cc(=O)c2c1OC | -1.79% |
| COc1ccc(OC)c(NC(=O)CSc2nnc3ccc(-c4ccncc4)nn23)c1 | -11.2% |
| CCc1noc(C)c1C(=O)Nc1ccc(S(=O)(=O)N2CCCCC2)cc1 | 2.88% |
| Cc1ccc(Cl)c(OCCCCN(C)Cc2ccccc2)c1.O=C(O)C(=O)O | 1.14% |
| Cc1c(C(=O)NNS(=O)(=O)c2ccccc2Cl)sc(=S)n1C | 11.8% |
| CC/C=C/C(=O)N1CC2(CC(c3cccc(NC(=O)CCCCC)c3)=NO2)C[C@H]1C(N)=O (stereo partly shown) | 11.1% |
| COc1ccc(/C=C/C(=O)c2c(O)ccc3c(C)cc(=O)oc23)cc1 | 0.0569% |
| Cc1ccc(C(=O)NCC(c2ccco2)N2CCc3ccccc32)cc1 (stereo not shown) | 6.44% |
| CC(=O)Nc1ccc(NC(=O)c2c(C)nn(-c3ccccc3)c2Cl)cc1C | -6.07% |
| Cc1ccc(C)c(CSC2=NN3CCCC(=O)N=C3S2)c1 | 5.54% |
| O=C(NC1CCCCC1)N1CCCC(c2nc(-c3ccc(S(=O)(=O)N4CCCC4)cc3)no2)C1 (stereo not shown) | 5.38% |
| O=C(c1ccc(NS(=O)(=O)c2ccc(Cl)cc2)cc1)N1CCOCC1 | 11.9% |
| Cc1ccccc1NS(=O)(=O)c1ccc(C(=O)N2CCCC2)cc1 | 15.7% |
| Clc1ccc(CSc2ncn(-c3ccccc3)n2)cc1 | 6.05% |

| SMILES | hERG current change (%, negative = inhibition) at 1uM |
| --- | --- |
| O=C(C1=C[C@H](c2ccc3c(c2)OCO3)C[C@H](OCc2ccc(CO)cc2)O1)N1CCN(Cc2ccc3c(c2)OCO3)CC1 | -1.99% |
| COCCn1c(SCC(=O)N2CCCCCC2)nc2c(c1=O)SCC2 | 12.7% |
| COc1ccc(CCNC(=O)CSc2cn(Cc3cccc(C)c3)c3ccccc23)cc1OC | 11.3% |
| COc1ccc(Nc2nc(-c3ccncc3)nc3ccccc23)cc1 | 13.1% |
| CC(NC(=S)Nc1c(Cl)cccc1OC(F)F)C(C)(C)C (stereo not shown) | 3.38% |
| COC(=O)c1ccc(COn2c(=O)c(C)[n+]([O-])c3ccccc32)cc1 | 5.54% |
| CCOc1ncccc1C(=O)Nc1ccc(Cl)cc1 | 4.36% |
| C#CCSc1[nH]c(=O)cc(C)c1C#N | 15.2% |
| COC(=O)c1ccc(NC(=O)c2cc[n+](Cc3ccccc3)cc2)cc1.[Cl-] | 19.4% |
| COc1ccccc1NC(=O)c1sc2ncn(Cc3ccccc3C)c(=O)c2c1C | 15.3% |
| CCOC(=O)c1c(C)[nH]c(C)c1C(=O)COC(=O)c1ccc(S(=O)(=O)N(CC)CC)cc1 | 8.33% |
| CC1CN(C(=O)C2CCCC2)C(C)CN1C(=O)C1CCCC1 (stereo not shown) | 15.9% |
| C#CCNC(=O)C1=C[C@@H](c2ccc3c(c2)OCO3)C[C@@H](OCc2ccc(CO)cc2)O1 | 7.25% |
| Cc1ccc(CCNC(=O)c2sc3nc4n(c(=O)c3c2C)CCC4)cc1 | 13.7% |
| Cc1ccc(S(=O)(=O)N(C)C)cc1-n1c(SCC(=O)Nc2ccc(F)cc2)nc2ccccc2c1=O | 6.21% |
| COc1ccc(/C=C/C(=O)N2CCN(c3ccccn3)CC2)cc1OC | 13.1% |
| COc1nc(N)c(S(=O)(=O)c2ccccc2)cc1C#N | -4.58% |
| COc1ccc(C(C)=O)cc1CN1C(=O)NC(c2ccccc2)(c2ccccc2)C1=O | 3.47% |
| CCN(CC)C(=O)c1c(C)[nH]c(=S)c(C#N)c1-c1ccco1 | 4.95% |
| COc1cc(CNc2ccc(N3CCCC3)cc2)ccc1OCc1ccccc1F | 13.3% |
| COc1ccccc1NC(=O)CN1CCN(CC(=O)Nc2ccc3c(c2)OCO3)CC1 | -67.3% |
